Data published in a collection of fitness landscapes (doi:10.1016/j.celrep.2020.107928).
In all, about 81,000 sequences were measured (“one-hybrid fitness for binding NBS DNA”: median about -0.1, highest 2% from about 0.36 on). The list shows a part of the results.

B1: Caulobacter ParB omega fusion; a variant is named by its letters at X, in order, B8GW30 (parent)
chain: MESVVVGEPGMSEGRRGLGRGLSALLGEVDAAPAQAPGEQLGGSREAPIEILQRNPDQPRRTFREEDLEDLSNSIREKGVLQPILVRPSPDTAGEYQIVAGERAWRAAQRAGLKTVPIMVRELDDLAVLEIGIIENVQRADLNVLEEALSYKVLMEKFERTQENIAQTIGKSXSHVANXMRLLXLPDEVQSYLVSGELTAXHARAIAAAADPVALAKQIIEGGLSVRETEALARKAPNLSAGKSKGGRPPRVKDTDTQALESDLSSVLGLDVSIDHRGSTGTLTITYATLEQLDDLCNRLTRGI

Variants of: B1
Assay: one-hybrid fitness for binding NBS DNA (the Noc-binding site; scaled: cognate 1, non-cognate 0); higher = stronger binding
Details: with NBS DNA site
How it was run: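 On M9-minus-histidine containing 0.1 mM IPTG and 5 mM 3-AT, E. coli USO cells with a HIS3 reporter, site 19 bp from the promoter, grew 48 hours at 37°C to select Caulobacter ParB libraries randomised at four specificity codons. Plasmids from before and after were Illumina-sequenced, with three replicate libraries pooled and variants under 10 reads left out. Fitness is the log change in variant-to-wild-type read ratio, rescaled against cognate and non-cognate.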

Variant	one-hybrid fitness for binding NBS DNA
LGLN	≤ 0.2
EAPE	≤ 0.2
QGDN	≤ 0.2
LYQY	≤ 0.2
FWTP	≤ 0.2
LLSK	≤ 0.2
IQVR	≤ 0.2
VPAR	≤ 0.2
HGFL	≤ 0.2
HDSN	≤ 0.2
IRNP	≤ 0.2
SDRT	≤ 0.2
TEAP	≤ 0.2
ACPN	≤ 0.2
GRNR	≤ 0.2
KSEG	≤ 0.2
FMAM	≤ 0.2
LWPN	≤ 0.2
RFEP	≤ 0.2
VDNV	≤ 0.2
QFRP	≤ 0.2
TIRT	≤ 0.2
YAVE	≤ 0.2
RAID	≤ 0.2
KCYC	≤ 0.2
SVNN	≤ 0.2

Variant	one-hybrid fitness for binding NBS DNA
NMLC	≤ 0.2
NHCG	≤ 0.2
LLRW	≤ 0.2
AAHN	≤ 0.2
THMY	≤ 0.2
RYHT	0.45
NDMY	≤ 0.2
PYNW	≤ 0.2
LHAE	≤ 0.2
VSRK	≤ 0.2
LMEY	≤ 0.2
TDHP	≤ 0.2
NHFV	≤ 0.2
IFLC	≤ 0.2
QTIA	0.224
FITT	≤ 0.2
TIKP	≤ 0.2
QRWL	≤ 0.2
PVCG	≤ 0.2
CYET	≤ 0.2
KWSA	≤ 0.2
CPNS	≤ 0.2
LCCE	≤ 0.2
VQEA	≤ 0.2
TQQT	≤ 0.2
SMGS	≤ 0.2

Variant	one-hybrid fitness for binding NBS DNA
IECV	≤ 0.2
EPRY	≤ 0.2
QNYV	≤ 0.2
DTGW	≤ 0.2
RTQE	≤ 0.2
QRNK	0.488
PSPA	≤ 0.2
ARQE	≤ 0.2
NPWK	≤ 0.2
DAFS	≤ 0.2
YDPP	≤ 0.2
KSIR	≤ 0.2
APLA	≤ 0.2
QIIF	≤ 0.2
SIES	≤ 0.2
PYML	≤ 0.2
LKRR	≤ 0.2
NFTS	≤ 0.2
RWDI	≤ 0.2
GRFS	≤ 0.2
RGHA	≤ 0.2
IARD	≤ 0.2
QRNF	0.327
TCEI	≤ 0.2
ASNF	≤ 0.2
GHGS	≤ 0.2

Variant	one-hybrid fitness for binding NBS DNA
PDVC	≤ 0.2
SYNC	≤ 0.2
QCVC	≤ 0.2
RFCQ	≤ 0.2
MPIT	≤ 0.2
WPPD	≤ 0.2
QHYS	0.324
MRGL	≤ 0.2
QSWA	≤ 0.2
GMNW	≤ 0.2
KQCT	≤ 0.2
MTVL	≤ 0.2
ELHR	≤ 0.2
QAPP	≤ 0.2
FGPR	≤ 0.2
LLRE	≤ 0.2
NYDG	≤ 0.2
GGDN	≤ 0.2
RARF	≤ 0.2
QRPA	0.207
FDNY	≤ 0.2
YYTT	≤ 0.2
RILD	≤ 0.2
GRSM	≤ 0.2
TFYD	≤ 0.2
ALIE	≤ 0.2

Variant	one-hybrid fitness for binding NBS DNA
ECRA	≤ 0.2
YIKT	≤ 0.2
QLRT	0.668
NREM	≤ 0.2
LHQG	≤ 0.2
AMPK	≤ 0.2
ETRT	≤ 0.2
SGND	≤ 0.2
LKTA	≤ 0.2
VPKL	≤ 0.2
PMHN	≤ 0.2
RCTM	≤ 0.2
YHSA	≤ 0.2
WACR	≤ 0.2
MKSD	≤ 0.2
SVTE	≤ 0.2
EYQG	≤ 0.2
TRFR	0.221
KSCD	≤ 0.2
AWYP	≤ 0.2
ECLN	≤ 0.2
RMEH	≤ 0.2
APKG	≤ 0.2
HPNA	≤ 0.2
GRNG	≤ 0.2
ICNV	≤ 0.2

Variant	one-hybrid fitness for binding NBS DNA
RLCC	≤ 0.2
DGQG	≤ 0.2
RDGF	≤ 0.2
CSTV	≤ 0.2
TNWP	≤ 0.2
QSAH	≤ 0.2
QYDI	≤ 0.2
DANT	≤ 0.2
EQIL	≤ 0.2
GTET	≤ 0.2
HMQG	≤ 0.2
NMNL	≤ 0.2
AAGV	≤ 0.2
WTGF	≤ 0.2
QDFN	≤ 0.2
VSVM	≤ 0.2
GDKG	≤ 0.2
LHGT	≤ 0.2
TNHM	≤ 0.2
STFS	≤ 0.2
HGIV	≤ 0.2
NLMQ	≤ 0.2
LWVV	≤ 0.2
